# Among all 330,000 compounds or so, about 300 (0.091%) were called active. The inconclusive results got no clear call from the source; some entries with a clear call stand among them for comparison. Calls follow the shape of the dose curve; as a rule, active = well fitted inhibition curve with a large enough effect; inconclusive = small, poorly fitted or top-dose-only effect, or effect the other way, or another doubt; inactive = no such curve, though single readings can be large or run the other way. No potency is given beside an inconclusive call; the fits are too rough.
# Biological target: Lysosomal acid glucosylceramidase (Homo sapiens) (UniProt P04062)
# Experiment: qHTS Assay for Inhibitors and Activators of N370S glucocerebrosidase as a Potential Chaperone Treatment of Gaucher Disease;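 as to activity change, negative = inhibition: 0% = full enzyme activity and -100% = no enzyme basal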
# Conditions: N370S GC spleen homogenate, 4MU-glucoside fluorescence; activity change, negative = inhibition: at 59.4 µM (top of the series) unless noted
# Potency is read from the fitted curve at half-maximal effect.
Structure (SMILES),"activity change, negative = inhibition",Potency
O=C(Nc1nc(-c2ccccc2)cs1)c1ccc(N2CCOCC2)c([N+](=O)[O-])c1,inactive: -0.786%,
COc1cc(OC)cc(C(=O)N[C@H](C(=O)OCC(=O)Nc2cccc(F)c2)C(C)C)c1,,"inconclusive [activator, partial curve]"
CN(C)C(=O)c1ccc(Nc2nc(-c3cccs3)nc3ccccc23)cc1,,"inconclusive [inhibitor, full curve]"
N/C(=N\C(=S)Nc1ccccc1)c1ccccc1,inactive: -2.65%,
COCCNc1c(-c2ccc(O)cc2)nc2ccc(Cl)cn12,,"inconclusive [inhibitor, partial curve, poor fit]"
Cc1ccc(C(C)C)c(OCCNCCc2ccccc2)c1,,"inconclusive [inhibitor, partial curve, poor fit]"
CCOc1cc(CNCCO)cc(Br)c1OCc1ccc(Cl)cc1,,"inconclusive [inhibitor, partial curve, poor fit]"
C/C(=N/NC(=O)CN1CCN(Cc2ccccc2Cl)CC1)c1cccs1,,"inconclusive [inhibitor, partial curve, poor fit]"
COc1ccc(CNC(=O)c2ccc(C(C)C)cc2)cc1,inactive: 15.9%,
CC(=O)N1CCN(C(=O)c2cccc(S(=O)(=O)N3CCN(c4ccc(F)cc4)CC3)c2)CC1,inactive: -17.2%,
CCOc1ccc(CCNC(=O)CCc2nc3ccccc3[nH]2)cc1OCC,,"inconclusive [inhibitor, partial curve]"
O=C(OCC(=O)N(CCc1ccccc1)Cc1ccccc1)c1ccccc1NCCO,,"inconclusive [activator, single point]"
O=C(CSCc1nc2scc(-c3cccs3)c2c(=O)[nH]1)Nc1ccccn1,,"inconclusive [inhibitor, partial curve, poor fit]"
N#Cc1c(N2CCCC2)ccc(Br)c1Cl,,"inconclusive [activator, partial curve]"
COc1ccc(CCN2C(=O)CSC2c2ccc(OC)c(OC)c2)cc1OC (stereo not drawn),inactive: -1.12%,
Cc1ccc(/C(O)=C2/C(=O)C(=O)N(CCN3CCOCC3)C2c2cccnc2)cc1 (stereo not drawn),,"inconclusive [inhibitor, single point]"
Cc1ccc2nc3c(cc(C(=O)NC4CCS(=O)(=O)C4)n3Cc3ccccc3)c(=O)n2c1 (stereo not drawn),,"inconclusive [activator, partial curve]"
O=C(Nc1cccc2cccnc12)c1ccc2c(c1)OCCO2,,"inconclusive [activator, partial curve]"
COc1ccccc1/C=C/C=N/NC(=O)c1ccccn1,inactive: -16.2%,
CCCOc1c(Br)cc(C2C3=C(CCCC3=O)N(CC)C3=C2C(=O)CCC3)cc1OC,,"inconclusive [activator, partial curve, poor fit]"
O=c1[nH]c2sc3c(c2c(=O)n1Cc1ccccc1)CCC3,,"inconclusive [activator, partial curve]"
COc1ccc2cnoc(=O)c2c1OC,,"inconclusive [activator, partial curve]"

Structure (SMILES),"activity change, negative = inhibition",Potency
CCOC(=O)C[n+]1ccc2c([nH]c3ccccc32)c1C,,"inconclusive [activator, partial curve]"
COc1ccc(N(Cc2cc3ccc(C)cc3[nH]c2=O)S(=O)(=O)c2ccccc2)cc1,,"inconclusive [activator, partial curve]"
CCOc1ccccc1NC(=O)CSc1ccc(-c2ccco2)nn1,,"inconclusive [activator, partial curve]"
CCN(CCN(C)C)C(=O)c1ccc2c(c1NCCO)C(=O)c1ccccc1C2=O,,"inconclusive [inhibitor, partial curve]"
COCc1nc2oc3ccc(F)cc3c(=O)c2cc1C(=O)OC,inactive: 0.0789%,
CC1=NN(c2ccccc2)C(=O)C1/C=C1\NC(=S)NC1=O (stereo not drawn),,"inconclusive [inhibitor, single point]"
CN1CCN(Cc2nc(N)nc(Nc3ccc4c(c3)OCCO4)n2)CC1,,"inconclusive [inhibitor, full curve]"
Cc1ccc(C)n1-c1nccc(-c2ccco2)n1,,"inconclusive [activator, partial curve]"
CCOc1ccccc1C=Nc1ccccc1C(=O)Nc1ccccc1,,"inconclusive [activator, full curve]"
Cc1cccc(-c2nc3cc([N+](=O)[O-])ccc3o2)c1,inactive: 3.12%,
CN(C)CCCN(C(=O)c1cc(-c2cccs2)nc2ccccc12)c1nc2ccc(F)cc2s1,,"inconclusive [inhibitor, partial curve]"
CCOC(=O)C1CN(S(=O)(=O)c2ccc(C)cc2)c2ccccc2O1 (stereo not drawn),inactive: -11%,
Cc1ccc(-c2nc3c(c(=O)[nH]c(=O)n3CC(C)C)n2CC(C)C)cc1[N+](=O)[O-],,"inconclusive [activator, single point]"
CCOc1ccc2nc(NCCCNS(=O)(=O)c3ccccc3)c(C#N)cc2c1,,"inconclusive [activator, single point]"
CC1CCCCN1C(=O)c1ccc(C(=O)Nc2ccc(F)cc2)cc1 (stereo not drawn),,"inconclusive [inhibitor, single point]"
CCNc1ncc2ncc(=O)n(Cc3ccc(F)cc3)c2n1,,"inconclusive [activator, single point]"
Nc1c(C(=O)NCc2ccco2)c2nc3ccccc3nc2n1CCc1ccccc1F,,"inconclusive [activator, partial curve]"
CN(CC(=O)Nc1ccccc1Cl)C(=O)COC(=O)c1ccc(Cl)nc1,inactive: 1.43%,
COCCC1CCCCN1C(=O)c1ccc(OC2CCN(C(C)=O)CC2)c(OC)c1 (stereo not drawn),,"inconclusive [inhibitor, partial curve]"
CN(C)c1c(N)c(=O)oc2ccccc12,inactive: 1.31%,
CC(C)(C)c1ccc(OCC(=O)N(c2ccccn2)C2CCCCC2)cc1,,"inconclusive [activator, single point]"
